Laboratory results taken from PubChem BioAssay AID485313 (National Center for Advancing Translational Sciences (NCATS), 2010).
In all, about 320,000 compounds went through this assay and about 7,600 (2.4%) were called active. This list was built around the results that the source calls inconclusive (neither active nor inactive); the mix of calls is not that of the screen. Calls follow the shape of the dose curve; as a rule, active = well fitted activation curve with a large enough effect; inconclusive = small, poorly fitted or top-dose-only effect; inactive = no such curve, though single readings can be large or run the other way. No potency is given beside an inconclusive call; the fits are too rough.

assay: qHTS Assay for NPC1 Promoter Activators; settings: Huh7 NPC1 promoter luciferase reporter, 24 h; series mostly up to 9.22 µM; activation: at the top concentration; also: nearly all actives have a fitted effect of over 60% in size;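 as to activation: reporter is driven by a mutant NPC1 promoter; % of control where 0% means no effect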
Method in brief: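 In 1536-well qHTS, Huh7 cells harboring an NPC1 promoter–luciferase construct received compound for 24 h; activation was quantified by luminescence following luciferase reagent addition.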
Potency is read from the fitted curve at half-maximal effect; tags tell the direction and shape of the fitted curve.

| Compound | Potency | activation |
| --- | --- | --- |
| CCOc1ccc(N=Nc2c(=O)[nH]n3c(=O)cc(C)[nH]c23)cc1 | inconclusive [activator, single point] | – |
| O=C(NC1CCCCC1)c1cc2nc3c(c(C(F)(F)F)n2n1)CCCC3 | inconclusive [activator, partial curve] | – |
| COc1ccc(C(=O)CC(=O)c2ccccc2O)cc1 | inconclusive [activator, single point] | – |
| Cc1c(C(=O)N2CCCCC2)oc2ccc(Br)cc12 | inconclusive [activator, single point] | – |
| COc1ccc(N(CC(=O)Nc2cccc(OC)c2)S(=O)(=O)c2c(C)nn(C)c2C)cc1 | – | inactive: -2.25% |
| COc1ccc(S(=O)(=O)N2CCc3ccccc32)cc1C(=O)NCCc1ccccn1 | – | inactive: -9.9% |
| O=C(c1cc2ccccc2o1)c1nc2c(n1O)CCCCC2 | inconclusive [activator, partial curve] | – |
| CCOc1ccc(C(=O)C(CCC(CN(C)C)C(=O)c2ccc(OCC)cc2)CN(C)C)cc1 (configuration not stated) | – | inactive: -22.3% |
| Cc1cc2nc3c(nc2cc1C)CCCC3 | inconclusive [activator, single point] | – |
| O=C(Nc1ccc(Br)cn1)c1ccc(Br)s1 | inconclusive [activator, partial curve] | – |
| COCCCNC(=O)c1c(N)n(/N=C/c2ccccn2)c2nc3ccccc3nc12 | – | inactive: 1.17% |
| COC(=O)c1cccc(N(CC(=O)NC2CCCC2)C(=O)CCC(=O)Nc2cc(C)on2)c1 | – | inactive: 1.3% |
| CC1CCN(C(C(=O)O)c2ccccc2)CC1 (configuration not stated) | – | inactive: 1.04% |
| COc1ccc(C(=O)OCc2csc(C)n2)c(O)c1 | inconclusive [activator, partial curve] | – |
| Cc1c(C(=O)N2CCC(C(N)=O)CC2)oc2ccc(Br)cc12 | inconclusive [activator, partial curve] | – |
| COc1ccc(NC(=O)CCCN2C(=O)C(c3ccccc3)Oc3cccnc32)cc1OC (configuration not stated) | inconclusive [activator, single point] | – |
| COc1ccc(/C=C/C(=O)Nc2ccccc2C(=O)N2CCCC2)cc1 | inconclusive [activator, partial curve] | – |
| Clc1ccc(OCCn2cnc3ccccc32)c(Cl)c1 | inconclusive [activator, partial curve] | – |
| CN(C)C(=O)Cn1c(SCC(=O)NCc2ccc3c(c2)OCO3)nc2ccccc21 | – | inactive: 0.348% |
| O=[N+]([O-])c1nn(-c2ccc3c(c2)OCCO3)n(O)c1=NC1CCCCCC1 | – | inactive: 19.3% |
| Cn1ccs/c1=N\C(=O)Nc1cccc(C(F)(F)F)c1 | inconclusive [activator, partial curve] | – |
| CNc1oc(-c2ccc(Cl)cc2)nc1C#N | inconclusive [activator, partial curve] | – |
| COC(=O)c1ccc(N2CCS(=O)(=O)CC2)cc1 | – | inactive: 0.77% |
| COc1cccc2c(Cl)c(CC=C(Cl)Cl)c(C)nc12 | – | inactive: -2.47% |
| CCCc1cc(C(=O)N/N=C/c2cccn2C)cs1 | inconclusive [activator, partial curve] | – |
| COc1cccc(/C=N/NC(=O)c2cccc(N3CCCC3=O)c2)c1 | inconclusive [activator, single point] | – |

| Compound | Potency | activation |
| --- | --- | --- |
| CCCc1ccc(-c2cc(C(=O)NN3CCOCC3)c3ccccc3n2)cc1 | inconclusive [activator, partial curve] | – |
| Cn1nccc1NS(=O)(=O)c1ccc(F)cc1 | active: 0.0003 µM | – |
| Cc1ccc(S(=O)(=O)C2(C(=O)N3CCN(c4ccccc4F)CC3)CC2)cc1 | – | inactive: -3.9% |
| Cc1cc(SCCOc2ccccc2)nc(N)n1 | inconclusive [activator, partial curve] | – |
| CCN1C(=O)N/C(=C/c2cc(C)n(Cc3ccccc3)c2C)C1=O | inconclusive [activator, single point] | – |
| O=S1(=O)N=C(Nc2ccc(N3CCOCC3)c(Cl)c2)c2ccccc21 | inconclusive [activator, partial curve] | – |
| COc1cccc(/C=N/NC(=O)CCn2cnc3ccccc32)c1 | – | inactive: 0.363% |
| COC(=O)Cc1c(C)c2ccc(OCc3nn[nH]n3)c(C)c2oc1=O | – | inactive: -3.9% |
| COC(=O)c1cccc(NC(=O)c2ccc(OC)c(Cl)c2)c1 | inconclusive [activator, single point] | – |
| O=C(COc1ccc(Cl)cc1)Nc1ccc(Cl)cn1 | inconclusive [activator, partial curve] | – |
| Nc1c(C(=O)NCc2ccco2)nnn1-c1ccccc1 | inconclusive [activator, partial curve] | – |
| O=C(Nc1ccc(-c2ccc([N+](=O)[O-])cc2)cc1)c1ccccc1F | – | inactive: 14.1% |
| CN(C(=O)COC(=O)c1c2c(nc3ccccc13)CCCC2)c1c(N)n(Cc2ccccc2)c(=O)[nH]c1=O | – | inactive: 0.896% |
| CCCC/C(O)=C1\C(=O)CC(C)(C)CC1=Nc1ccc(N)cc1 | – | inactive: -3.18% |
| COc1cccc(Nc2ncnc3sccc23)c1 | inconclusive [activator, single point] | – |
| O=C1C2C3C=CC(CC3)C2C(=O)N1/N=C/c1c[nH]c2ccccc12 (configuration not stated) | inconclusive [activator, partial curve] | – |
| COc1ccc(/C=N/Nc2nc(NCc3ccco3)nc(Nc3ccc(OC)cc3)n2)cc1 | – | inactive: -1.6% |
| Cc1onc(-c2ccccc2)c1C(=O)N1CCCC(C(F)(F)F)C1 (configuration not stated) | – | inactive: -3.39% |
| Cc1cc(OCc2ccc(C(=O)n3cccn3)o2)ccc1Cl | inconclusive [activator, partial curve] | – |
| COc1ccc(NC(=O)/C(=C/c2ccc3c(c2)OCO3)NC(C)=O)cc1 | – | inactive: -1.17% |
| O=C(NCc1ccccc1)C1=C[C@H](c2coc3ccccc3c2=O)C[C@H](OCCCCO)O1 | – | inactive: 1.22% |
| O=[N+]([O-])c1cccc(NC(=S)N2CCc3ccccc3C2)c1 | inconclusive [activator, partial curve] | – |
| COc1cc(OC)cc(C(=O)Nc2ccc(-c3nc4ccccc4o3)c(O)c2)c1 | inconclusive [activator, single point] | – |
| O=C(N/N=C/C=C/c1ccccc1)c1ccccn1 | inconclusive [activator, single point] | – |
| CNC(=S)N/N=C1\C(=O)c2cccc3cccc1c23 | – | inactive: 21.7% |
| COc1ccccc1NC(=O)c1oc2ccc(C)cc2c1C | inconclusive [activator, partial curve] | – |

| Compound | Potency | activation |
| --- | --- | --- |
| Cc1cccc(S(=O)(=O)Nc2cccc(-c3cn4ccsc4n3)c2)c1 | – | inactive: -0.873% |
| Cc1ccc2oc(-c3ccco3)nc2c1 | inconclusive [activator, partial curve] | – |
| COc1ccc(NC(=O)CSc2nnc(-c3ccc(F)cc3)o2)cn1 | inconclusive [activator, single point] | – |
| N=c1oc2ccccc2cc1C(=O)NC1CCCCCC1 | inconclusive [activator, single point] | – |
| O=c1c2ccccc2nnn1CSc1nnc2ccccn12 | active: 3.55 µM | – |
| COc1ccc(-c2nc3nc(C)cc(C)n3n2)cc1 | inconclusive [activator, partial curve] | – |
| O=C(Nc1ccc(Br)cn1)c1coc(=O)c(Br)c1 | inconclusive [activator, single point] | – |
| Cc1cc(/C=N/Nc2nc(N)ncc2[N+](=O)[O-])c(C)n1-c1ccccc1F | inconclusive [activator, partial curve] | – |
| O=C(Nc1ccccc1)N1CCc2ccccc2C1 | inconclusive [activator, partial curve] | – |
| Clc1ccc(-c2nc3cc(CN4CCCCC4)ccc3o2)cc1 | active: 1.78 µM | – |
| COc1ccc(-c2cn3ccccc3n2)cc1 | active: 0.562 µM | – |
| COc1cc(Cl)ccc1OCc1cc(C(=O)N(C)Cc2nnc(C)o2)no1 | – | inactive: 28.9% |
| COc1ccccc1N/C=C/c1onc(C)c1[N+](=O)[O-] | active: 1 µM | – |
| CC1CCCN(C(=O)CSc2nnc(-c3ccc(O)cc3)o2)C1 (configuration not stated) | inconclusive [activator, single point] | – |
| CC(=O)c1ccc(N2CCN(C(=O)CNS(=O)(=O)c3ccc4c(c3)OCCCO4)CC2)c(F)c1 | – | inactive: -4.36% |
| CCN1C(=O)C(=O)N(CC(=O)c2cc(C)n(C3CC3)c2C)C1=O | inconclusive [activator, single point] | – |
| COc1c(O)cc2oc(-c3ccc(O)cc3)cc(=O)c2c1O | inconclusive [activator, single point] | – |
| O=C(CSc1nnc(-c2ccc(F)cc2)o1)N1CCCC1 | inconclusive [activator, single point] | – |
| Cn1c(O)c(N=NC(=O)c2ccccc2O)c2ccccc21 | active: 3.55 µM | – |
| COc1cccc(NC(=O)c2ccn(C)n2)c1 | inconclusive [activator, partial curve] | – |
| Cc1ccc(C(=O)/C=C/c2ccc3c(c2)OCCO3)c(O)c1 | inconclusive [activator, single point] | – |
| NC(=O)Cn1nnc(-c2ccc(NC(=O)c3ccc(F)cc3)cc2)n1 | inconclusive [activator, partial curve] | – |
| COCCCNC(=O)c1ccc2nc(Cc3ccc(OC)cc3)oc2c1 | active: 3.98 µM | – |
| N/C(=N\OC(=O)/C=C/c1ccccc1)c1ccc(Cl)cc1 | – | inactive: 10.4% |
| CCOc1ccc(NC(=O)CCC(=O)NNS(=O)(=O)c2ccccc2[N+](=O)[O-])cc1 | – | inactive: -3.48% |
